{"source": "the supplement of paper PMC8728848", "experiment_in_all_cases": "glycan array binding signal (z-score within array); higher = stronger binding", "conditions_in_all_cases": "glycan notation: IUPAC condensed, linker removed", "key": {"[1]": {"tested_on": "GlcNAc(b1-2)Man(a1-3)[GlcNAc(b1-2)Man(a1-6)]Man(b1-4)GlcNAc(b1-4)GlcNAc", "method_in_brief": "(§1)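 Negative Z-scores can be read as non-binding. The Z-score is calculated within each array and then averaged across arrays of one protein sequence at different concentrations or buffers and across linkers. Arrays, 3228 in all, were curated from the Consortium for Functional Glycomics database and kept only where the protein sequence was available.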"}, "[2]": {"tested_on": "GlcNAc(b1-3)Gal(b1-4)GlcNAc(b1-2)[GlcNAc(b1-3)Gal(b1-4)GlcNAc(b1-6)]Man(a1-6)[GlcNAc(b1-3)Gal(b1-4)GlcNAc(b1-2)Man(a1-3)]Man(b1-4)GlcNAc(b1-4)GlcNAc", "method_in_brief": "as §1"}, "[3]": {"tested_on": "GlcNAc(b1-3)Gal(b1-4)GlcNAc(b1-3)Gal(b1-4)GlcNAc(b1-3)Gal(b1-4)GlcNAc(b1-2)Man(a1-3)[GlcNAc(b1-3)Gal(b1-4)GlcNAc(b1-3)Gal(b1-4)GlcNAc(b1-3)Gal(b1-4)GlcNAc(b1-2)Man(a1-6)]Man(b1-4)GlcNAc(b1-4)GlcNAc", "method_in_brief": "as §1"}, "[4]": {"tested_on": "GlcNAc(b1-3)Gal(b1-3)GalNAc", "method_in_brief": "as §1"}, "[5]": {"tested_on": "GlcNAc(b1-3)Gal(b1-4)GlcNAc(b1-3)Gal(b1-4)GlcNAc(b1-2)Man(a1-3)[GlcNAc(b1-3)Gal(b1-4)GlcNAc(b1-3)Gal(b1-4)GlcNAc(b1-2)Man(a1-6)]Man(b1-4)GlcNAc(b1-4)[Fuc(a1-6)]GlcNAc", "method_in_brief": "as §1"}, "[6]": {"tested_on": "GlcNAc(b1-3)Gal(b1-4)GlcNAc(b1-3)Gal(b1-4)GlcNAc(b1-2)[GlcNAc(b1-3)Gal(b1-4)GlcNAc(b1-3)Gal(b1-4)GlcNAc(b1-6)]Man(a1-6)[GlcNAc(b1-3)Gal(b1-4)GlcNAc(b1-3)Gal(b1-4)GlcNAc(b1-2)Man(a1-3)]Man(b1-4)GlcNAc(b1-4)[Fuc(a1-6)]GlcNAc", "method_in_brief": "as §1"}, "[7]": {"tested_on": "GlcNAc(b1-3)Gal(b1-4)GlcNAc(b1-3)Gal(b1-4)GlcNAc(b1-3)Gal(b1-4)GlcNAc(b1-2)Man(a1-3)[GlcNAc(b1-3)Gal(b1-4)GlcNAc(b1-3)Gal(b1-4)GlcNAc(b1-3)Gal(b1-4)GlcNAc(b1-2)Man(a1-6)]Man(b1-4)GlcNAc(b1-4)[Fuc(a1-6)]GlcNAc", "method_in_brief": "as §1"}, "[8]": {"tested_on": "GlcNAc(b1-3)Gal(b1-4)GlcNAc(b1-3)Gal(b1-4)GlcNAc(b1-3)Gal(b1-4)GlcNAc(b1-2)[GlcNAc(b1-3)Gal(b1-4)GlcNAc(b1-3)Gal(b1-4)GlcNAc(b1-3)Gal(b1-4)GlcNAc(b1-6)]Man(a1-6)[GlcNAc(b1-3)Gal(b1-4)GlcNAc(b1-3)Gal(b1-4)GlcNAc(b1-3)Gal(b1-4)GlcNAc(b1-2)Man(a1-3)]Man(b1-4)GlcNAc(b1-4)[Fuc(a1-6)]GlcNAc", "method_in_brief": "as §1"}, "[9]": {"tested_on": "GlcNAc(b1-2)Man(a1-3)[GlcNAc(b1-2)Man(a1-6)]Man(b1-4)GlcNAc(b1-4)[Fuc(a1-6)]GlcNAc", "method_in_brief": "as §1"}, "[10]": {"tested_on": "GlcNAc(b1-2)[GlcNAc(b1-4)]Man(a1-3)[GlcNAc(b1-4)][GlcNAc(b1-2)Man(a1-6)]Man(b1-4)GlcNAc(b1-4)GlcNAc", "method_in_brief": "as §1"}}, "note": "Shown is part of a subset that was picked to be rich in the strongest signals.", "data": [{"substance": "Meso764 (Homo sapiens) (chain not printed)", "values": [{"measurement": "glycan array binding signal (z-score)", "setting": "[1]", "value": -0.482}]}, {"substance": "FGF2 (chain not printed)", "values": [{"measurement": "glycan array binding signal (z-score)", "setting": "[2]", "value": 1.39}, {"measurement": "glycan array binding signal (z-score)", "setting": "[3]", "value": -0.461}]}, {"substance": "MBP (Homo sapiens) (chain not printed)", "values": [{"measurement": "glycan array binding signal (z-score)", "setting": "[4]", "value": 0.338}, {"measurement": "glycan array binding signal (z-score)", "setting": "[5]", "value": 5.2}, {"measurement": "glycan array binding signal (z-score)", "setting": "[6]", "value": 5.33}, {"measurement": "glycan array binding signal (z-score)", "setting": "[3]", "value": 5.17}, {"measurement": "glycan array binding signal (z-score)", "setting": "[7]", "value": 6.78}, {"measurement": "glycan array binding signal (z-score)", "setting": "[8]", "value": 5.42}]}, {"substance": "Siglec-2 (Homo sapiens) (chain not printed)", "values": [{"measurement": "glycan array binding signal (z-score)", "setting": "[9]", "value": -0.015}]}, {"substance": "M-Ficolin G221F A256V (Homo sapiens) (chain not printed)", "values": [{"measurement": "glycan array binding signal (z-score)", "setting": "[1]", "value": -0.255}]}, {"substance": "L-Ficolin (Homo sapiens) (chain not printed)", "values": [{"measurement": "glycan array binding signal (z-score)", "setting": "[1]", "value": -0.577}]}, {"substance": "Gal 8-short (Homo sapiens) (chain not printed)", "values": [{"measurement": "glycan array binding signal (z-score)", "setting": "[4]", "value": 1.59}]}, {"substance": "Gal 3 (Homo sapiens) (chain not printed)", "values": [{"measurement": "glycan array binding signal (z-score)", "setting": "[7]", "value": 3.31}]}, {"substance": "M-Ficolin (Homo sapiens) (chain not printed)", "values": [{"measurement": "glycan array binding signal (z-score)", "setting": "[9]", "value": -0.251}]}, {"substance": "M-Ficolin G221F (Homo sapiens) (chain not printed)", "values": [{"measurement": "glycan array binding signal (z-score)", "setting": "[9]", "value": -0.17}]}, {"substance": "VWF (Homo sapiens) (chain not printed)", "values": [{"measurement": "glycan array binding signal (z-score)", "setting": "[4]", "value": -0.187}]}, {"substance": "NCAM1 (Homo sapiens) (chain not printed)", "values": [{"measurement": "glycan array binding signal (z-score)", "setting": "[9]", "value": 0.202}]}, {"substance": "Thrombomodulin Extracellular (Homo sapiens) (chain not printed)", "values": [{"measurement": "glycan array binding signal (z-score)", "setting": "[1]", "value": -0.338}, {"measurement": "glycan array binding signal (z-score)", "setting": "[10]", "value": 1.9}, {"measurement": "glycan array binding signal (z-score)", "setting": "[7]", "value": -0.079}]}, {"substance": "M-Ficolin A256V (Homo sapiens) (chain not printed)", "values": [{"measurement": "glycan array binding signal (z-score)", "setting": "[4]", "value": -0.134}]}]}
